# Measured values taken from paper PMC5892938.
# This is one part of the list. At the low end of the ranking the order means little.
# Molecular target: GST-SBP-SLBP (stem-loop binding protein) (UniProt Q14493)
# Assay: targeted RNA Bind-n-Seq;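 also: DESeq read counts versus GST-SBP nonspecific binding control pulldown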
# Conditions: RBNS binding buffer: 25 mM Tris pH 7.5, 150 mM KCl, 3 mM MgCl2, 0.1% Tween, 0.5 mg/mL BSA, 1 mM DTT; 27 nM protein, 750 pM RNA pool; temperature not stated; high values mean tight binding
row,Sequence,binding signal (log2 fold change)
1,GGUCACGUCUCAAUCAACUCUCUAGAGGGGGGGAAAACCCCUUUACCCUCGUUCUCAACAGCUCGCAGUCAAG,-0.323
2,GGUCACGUCUCAAUCAACUCAGUCCCCAGGGAAAACCCUGGCAAAUUCAACAGCUCGCAGUCAAG,-0.0242
3,GGUCACGUCUCAAUCAACUCCAAAGAGGGGGGGAAAACCCCUUUGCCCUCAUCAUCAACAGCUCGCAGUCAAG,-0.322
4,GGUCACGUCUCAAUCAACUCAUGUCCAGGAGUUUCCUCCUGUUUUCUCAACAGCUCGCAGUCAAG,-0.243
5,GGUCACGUCUCAAUCAACUCUAUUUCAGGAGUUUCCUCCUGCUUAUUCAACAGCUCGCAGUCAAG,-0.0529
6,GGUCACGUCUCAAUCAACUCUACUUCAGGAGUUUACUCCUGUAUAUUCAACAGCUCGCAGUCAAG,0.084
7,GGUCACGUCUCAAUCAACUCCCAGGAGGGGGGGAAAACCCCUUUACCCUCAAUCUCAACAGCUCGCAGUCAAG,-0.283
8,GGUCACGUCUCAAUCAACUCUCCAGAGGGGGGGAAAACCCCUUUGCCCUCCACAUCAACAGCUCGCAGUCAAG,0.318
9,GGUCACGUCUCAAUCAACUCCUAAGAGGGGGGGAAAACCCCUUUACCCUCACUAUCAACAGCUCGCAGUCAAG,0.433
10,GGUCACGUCUCAAUCAACUCCUAAGAGGGGGGGAAAACCCCUUUACCCUCCACGUCAACAGCUCGCAGUCAAG,-0.0502
11,GGUCACGUCUCAAUCAACUCUUCCUCAGGAGUUUCCUCCUGCUAAUUCAACAGCUCGCAGUCAAG,-0.0645
12,GGUCACGUCUCAAUCAACUCUUAAGAGGGGGGGAAAACCCCUUUGCCCUCGAAAUCAACAGCUCGCAGUCAAG,0.0747
13,GGUCACGUCUCAAUCAACUCUAUCCCCAGGGAAACCCCUGGCUAUUUCAACAGCUCGCAGUCAAG,-0.00996
14,GGUCACGUCUCAAUCAACUCUUCUUCAGGAGUUUCCUCCUGUAUUCUCAACAGCUCGCAGUCAAG,0.187
15,GGUCACGUCUCAAUCAACUCAUCCGAGGGGGGGAAAACCCCUUUACCCUCAACCUCAACAGCUCGCAGUCAAG,-0.308
16,GGUCACGUCUCAAUCAACUCAUUUUCAGGAGUUUCCUCCUGCAAUCUCAACAGCUCGCAGUCAAG,-0.0778
17,GGUCACGUCUCAAUCAACUCUUAAGAGGGGGGGAAAACCCCUUUACCCUCCGCAUCAACAGCUCGCAGUCAAG,-0.353
18,GGUCACGUCUCAAUCAACUCAUUCGCAGGAGUUUUCUCCUGGUAUCUCAACAGCUCGCAGUCAAG,-0.0537
19,GGUCACGUCUCAAUCAACUCAUCUCCAGGAGUUUUCUCCUGCUUUUUCAACAGCUCGCAGUCAAG,0.0146
20,GGUCACGUCUCAAUCAACUCAUCGUCAGGAGUUUGCUCCUGCUUAUUCAACAGCUCGCAGUCAAG,0.0208
21,GGUCACGUCUCAAUCAACUCAUUUCCAGGAGUUUUCUCCUGCUUACUCAACAGCUCGCAGUCAAG,0.0953
22,GGUCACGUCUCAAUCAACUCAAUCUCAGGAGUUUGCUCCUGCUAUUUCAACAGCUCGCAGUCAAG,0.199
23,GGUCACGUCUCAAUCAACUCAUCCCCAGGAGUUUACUCCUGCAAACUCAACAGCUCGCAGUCAAG,0.0741
24,GGUCACGUCUCAAUCAACUCUAUCUCCAGGGAAAGCCCUGGCUUUUUCAACAGCUCGCAGUCAAG,-0.529

row,Sequence,binding signal (log2 fold change)
1,GGUCACGUCUCAAUCAACUCAUCCUCAGGAGUUUACUCCUGCAAUGUCAACAGCUCGCAGUCAAG,-0.055
2,GGUCACGUCUCAAUCAACUCAUCUUCCAGGGAAAACCCUGGUAUAUUCAACAGCUCGCAGUCAAG,-0.0205
3,GGUCACGUCUCAAUCAACUCUUCGUCCAGGGAAAGCCCUGGCUAAUUCAACAGCUCGCAGUCAAG,0.0315
4,GGUCACGUCUCAAUCAACUCUUCCCCCAGGGAAACCCCUGGCAAUUUCAACAGCUCGCAGUCAAG,0.143
5,GGUCACGUCUCAAUCAACUCAUUUUCAGGAGUUUCCUCCUGUAUACUCAACAGCUCGCAGUCAAG,0.000341
6,GGUCACGUCUCAAUCAACUCAUCGUCAGGAGUUUACUCCUGUAUUUUCAACAGCUCGCAGUCAAG,-0.00641
7,GGUCACGUCUCAAUCAACUCAAAAGAGGGGGGGAAAACCCCUUUACCCUCACAAUCAACAGCUCGCAGUCAAG,-0.107
8,GGUCACGUCUCAAUCAACUCACUAGAGGGGGGGAAAACCCCUUUGCCCUCACAAUCAACAGCUCGCAGUCAAG,0.268
9,GGUCACGUCUCAAUCAACUCUUUUCCCAGGGAAACCCCUGGCUUAUUCAACAGCUCGCAGUCAAG,0.0598
10,GGUCACGUCUCAAUCAACUCAAUUUCAGGAGUUUCCUCCUGUAUAUUCAACAGCUCGCAGUCAAG,-0.00968
11,GGUCACGUCUCAAUCAACUCUCCCGAGGGGGGGAAAACCCCUUUACCCUCAUCGUCAACAGCUCGCAGUCAAG,-0.185
12,GGUCACGUCUCAAUCAACUCUACUCCCAGGGAAACCCCUGGCUUAUUCAACAGCUCGCAGUCAAG,-0.137
13,GGUCACGUCUCAAUCAACUCAUCAGAGGGGGGGAAAACCCCUUUACCCUCCAUAUCAACAGCUCGCAGUCAAG,0.0306
14,GGUCACGUCUCAAUCAACUCAUCCCCAGGAGUUUCCUCCUGCAUACUCAACAGCUCGCAGUCAAG,0.149
15,GGUCACGUCUCAAUCAACUCGUCUUCAGGAGUUUUCUCCUGCAUAUUCAACAGCUCGCAGUCAAG,0.0526
16,GGUCACGUCUCAAUCAACUCAUCGUCAGGAGUUUACUCCUGCUUAUUCAACAGCUCGCAGUCAAG,0.197
17,GGUCACGUCUCAAUCAACUCAAUCUCAGGAGUUUACUCCUGCAAAGUCAACAGCUCGCAGUCAAG,0.321
18,GGUCACGUCUCAAUCAACUCUAUUUCAGGAGUUUCCUCCUGCAUUCUCAACAGCUCGCAGUCAAG,0.135
19,GGUCACGUCUCAAUCAACUCAUCUUCCAGGGAAAUCCCUGGUUUUUUCAACAGCUCGCAGUCAAG,-0.164
20,GGUCACGUCUCAAUCAACUCUUCAGAGGGGGGGAAAACCCCUUUACCCUCAAUUUCAACAGCUCGCAGUCAAG,-0.148
21,GGUCACGUCUCAAUCAACUCUUUCCCAGGAGUUUCCUCCUGCUUUCUCAACAGCUCGCAGUCAAG,0.0687
22,GGUCACGUCUCAAUCAACUCUUCUCCCAGGGAAAACCCUGGUAUUUUCAACAGCUCGCAGUCAAG,-0.235
23,GGUCACGUCUCAAUCAACUCUCACGAGGGGGGGAAAACCCCUUUACCCUCUACCUCAACAGCUCGCAGUCAAG,0.216
